Data reported in PubChem BioAssay AID1347417 (National Center for Advancing Translational Sciences (NCATS), 2020).
Hit rate of the full screen: of about 120,000 compounds, about 5,300 (4.4%) were called active. This list was built around the results that the source calls inconclusive (neither active nor inactive); the mix of calls is not that of the screen. The call rests on the fitted dose curve; in most records, active means well fitted inhibition curve with a large enough effect; inconclusive means small, poorly fitted or top-dose-only effect; inactive means no such curve, though single readings can be large or run the other way. Potencies of inconclusive entries are doubtful fits and often do not repeat.

Assay: qHTS Primary assay for Inhibitors of Plasmodium falciparum Dd2 growth in vitro; further: nearly all actives have a fitted effect of over 65% in size;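 on activity, negative = inhibition: plate controls were DMSO vehicle for no effect and reference drug for full effect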
Conditions: P. falciparum Dd2 growth, SYBR Green, 72 h; activity, negative = inhibition: at 28.9 µM (top of the series) unless noted; series mostly up to 28.9 µM
How it was run: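 Infected erythrocytes (Dd2, 0.3% parasitemia, 2.5% hematocrit final) are added to compound in RPMI-1640/Albumax II medium, grown 72 h at 37C in low oxygen, then lysed with saponin/Triton-X containing SYBR Green and read by fluorescence.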
Potency means the concentration at half of the fitted maximal effect; tags describe the fitted curve by direction and shape.

| SMILES | activity, negative = inhibition | outcome | Potency |
| --- | --- | --- | --- |
| COc1ccccc1CC(=O)N1CC[C@@H]2NC(=O)[C@H]3C[C@H](NC(=O)C4CC4)CN3C(=O)[C@H]21 | inactive: -6.89% [at 44.1 µM] |  |  |
| COc1cccc(C2Cn3nnc(-c4nc(-c5ccccc5F)no4)c3CO2)c1 (stereo not drawn) |  | inactive |  |
| Oc1ccc(CN2CCCCC2c2nc(CCOCC3CC3)no2)cc1 (stereo not drawn) |  | inactive |  |
| CC(C)c1noc(-c2cccn3c(CNC(=O)COc4ccc(F)cc4)nnc23)n1 |  |  | inconclusive: 1 µM [inhibitor, full curve, poor fit] |
| CC(C)(C)C(=O)N1CCC(N2CCCC(C(=O)NCc3ccccc3)C2)CC1 (stereo not drawn) |  |  | inconclusive: 12.6 µM [inhibitor, single point] |
| COc1ccc(-c2ccnc(N[C@H]3CO[C@H]4[C@@H]3OC[C@@H]4NC(=O)c3ccc(C)cc3)n2)cc1 |  |  | inconclusive: 10 µM [inhibitor, partial curve] |
| O=C(C1CCOCC1)N1CCC(N2C(=O)C(O)C23CCCCC3)CC1 (stereo not drawn) | inactive: 10.7% |  |  |
| CS(=O)(=O)N1CCCC(C(=O)N2CCN(Cc3ccccc3)CC2)CCNC(=O)CC1 (stereo not drawn) | inactive: -0.589% |  |  |
| Cc1ccc(NS(=O)(=O)c2ccccc2)c(=O)n1CC(=O)NC(C)c1ccccc1 (stereo not drawn) |  | inactive |  |
| Cc1cccc2nc(-c3ccccn3)c(Nc3ccc(F)cc3)n12 |  |  | active: 3.16 µM |
| CN1CCN(c2ccc(-c3nccc4c(=O)cc(N(C)c5ccccc5)oc34)cn2)CC1 |  |  | inconclusive: 11.2 µM [inhibitor, partial curve, poor fit] |
| CC(=O)Nc1ccc(CN2CCOC[C@H]2c2ncc(-c3ccc(Cl)cc3)[nH]2)cc1 |  |  | inconclusive: 14.1 µM [inhibitor, partial curve, poor fit] |
| Cc1cc(C)cc(N2C(=O)CSC23C(=O)N(Cc2c(F)cccc2Cl)c2ccccc23)c1 (stereo not drawn) |  |  | inconclusive: 15.8 µM [inhibitor, single point] |
| Cc1cccc(CN2CCCC(COc3ccccc3C(=O)N3CCCC3)C2)c1 (stereo not drawn) |  |  | inconclusive: 2 µM [inhibitor, partial curve, poor fit] |
| Cc1cccc(NC(=O)CCC2CCN(C(=O)CCCc3cccs3)CC2)c1 |  | inactive |  |
| COc1ccccc1-c1cc2c(nc1OC)nc(CC1CC1)n2C |  |  | active: 12.6 µM |
| CNS(=O)(=O)c1cn(CC(=O)N2CCN(c3ccc(C(C)=O)cc3)CC2)cc1S(=O)(=O)NC |  |  | inconclusive: 1 µM [inhibitor, full curve, poor fit] |
| O=C1NCCC[C@@H]1NC(=O)[C@@H]1CN(C(=O)c2cccc(F)c2)CCN1C(=O)C1CCNCC1 | inactive: 4.93% |  |  |
| Cc1ccc(NC(=O)C(CC(C)C)N2Cc3ccccc3C2=O)cc1F (stereo not drawn) | inactive: -7.78% |  |  |
| Cc1c(CCNC(=O)c2ccc(C(C)(C)C)cc2)sc2nc(-c3ccc(F)cc3)nn12 |  |  | active: 11.2 µM |
| O=C(c1cccnc1)N1CCN(C(=O)c2nnn3c2COC(c2ccccc2)C3)CC1 (stereo not drawn) |  |  | inconclusive: 12.6 µM [inhibitor, single point] |
| CC(C)(C)NC(=O)C[C@@H]1CCNC[C@@H]1Cc1cc(COc2ccccc2)on1 |  |  | inconclusive: 3.55 µM [inhibitor, single point] |

| SMILES | activity, negative = inhibition | outcome | Potency |
| --- | --- | --- | --- |
| Cc1ccc(-n2nc(C)c([C@@H]3C=C[C@@H](NC(=O)NCc4ccccc4)C3)c2C)cc1Cl |  |  | inconclusive: 35.5 µM [inhibitor, single point] |
| COc1ccccc1CN1Cc2cc(NC(=O)c3ccc(C#N)cc3)ccc2OC(C)C1=O (stereo not drawn) |  |  | inconclusive: 2 µM [inhibitor, single point] |
| COc1ccc(S(=O)(=O)NC[C@@H]2C=C(C)[C@H](CC(=O)N(C)Cc3cccnc3)C[C@H]2C(C)C)cc1 |  |  | inconclusive: 0.631 µM [inhibitor, single point] |
| COc1ccc(-c2noc([C@@H]3CCCN3C(=O)c3cc(Cl)ccc3F)n2)cc1OC | inactive: -6.07% |  |  |
| CCCCC(CC)CNC(=O)Cc1ccc(-n2c(=O)[nH]c3ccccc3c2=O)cc1 (stereo not drawn) | inconclusive: -37.5% [inhibitor] [at 0.594 µM] |  |  |
| O=c1[nH]c(N2CCOCC2)nc2c1CCN(S(=O)(=O)c1ccccc1F)CC2 |  | inactive [at 5.79 µM] |  |
| CC(C)c1cccc(NC(=O)C2CCN(C(=O)c3ncn4c3COC(c3ccc(F)cc3)C4)CC2)c1 (stereo not drawn) | inactive: -4.89% |  |  |
| CC(C)c1nc(C2Cc3ccccc3N2C(=O)C2CC2)no1 (stereo not drawn) |  |  | inconclusive: 17.8 µM [inhibitor, single point] |
| CCc1ccc(NC(=O)CSc2nc(C)c(C(=O)Nc3ccccc3)c(-c3ccc(OC)c(OC)c3)c2C#N)cc1 |  |  | inconclusive: 17.8 µM [inhibitor, single point] |
| Cc1ccc2nc(CO[C@H]3CN(Cc4ccc(C(F)(F)F)cc4)C[C@H]3F)[nH]c2c1 |  |  | active: 8.91 µM |
| CSCC(=O)N[C@H]1CCN2C(=O)c3cc(-c4ccccc4)ccc3NC(=O)[C@H]12 | inactive: 1.06% [at 44.1 µM] |  |  |
| Cc1cc(Br)ccc1NC(=O)CSc1c2c(nc3ccccc13)CCC2 |  |  | inconclusive: 17.8 µM [inhibitor, single point] |
| O=C(NC1CCCC1)N[C@@H]1C[C@H](Cn2cc(C3CC3)nn2)[C@@H](O)[C@H]1O | inactive: 9.43% [at 44.1 µM] |  |  |
| Cn1c(-c2ccc(CN3CC[C@H]4CNC[C@H]43)o2)nc2ccccc21 |  |  | inconclusive: 12.6 µM [inhibitor, single point] |
| COc1ccccc1CN1CCCn2nc(C)c(-c3ccccc3C(N)=O)c21 |  |  | inconclusive: 0.316 µM [inhibitor, partial curve, poor fit] |
| Cc1ccc(-n2nc(C(=O)N3CCN(c4ccccc4F)CC3)c(=O)n(C)c2=O)cc1 | inactive: 3.5% |  |  |
| CC(C)C1CN(C(=O)c2n[nH]c3c2CCC3)CCC(=O)N1CC1CC1 (stereo not drawn) | inactive: 0.366% |  |  |
| COc1ccc(-c2ccc3nnc(CNC(=O)c4ccccc4Cl)n3n2)cc1 |  | inactive |  |
| CC(C)(C)NC(=O)N1CCOc2ccc(CN3CCc4ccccc4C3)cc2C1 |  |  | inconclusive: 3.98 µM [inhibitor, single point] |
| CCOc1ccc(CCNC(=O)c2c(C)oc3ncn(CC(C)C)c(=O)c23)cc1OCC |  |  | inconclusive: 12.6 µM [inhibitor, single point] |
| CC(=O)N1CCc2c(sc3c2c(=O)n(-c2ccccc2)c(=O)n3CC(=O)Nc2cc(C)cc(C)c2)C1 | inactive: -2.58% |  |  |
